Laboratory results as given in the supplement of paper PMC10369915.
This is one part of the list. Rule as the data show it: active = 3.2 or more and inactive = the rest. Most of these values are background signal.

Molecular target: SHP2 C-SH2 domain E139D
Experiment: enrichment score (SH2-bound / input frequency) (ratio); bacterial display of known human phosphotyrosine sites (pTyr-Var adds point mutants) read by sequencing; higher = stronger binding; tyrosines were phosphorylated by kinases first
Details: peptide library: pTyr-Var
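Also: displayed peptides selected on beads carrying the immobilized SH2 domain, with library peptides lacking any tyrosine serving as negative controls.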

Binder | enrichment score
YGPPQYNMQYS [ERBB2IP_Y977_I979M] | inactive: 0.685
FGPPQYNMQFS [ERBB2IP_Y977_I979M_YF] | inactive: 1.16
RGDSAYHSQRH [ERBB3_Y1132] | inactive: 0.545
DEDEEYEYMNR [ERBB3_Y1197] | inactive: 0.417
DEEYEYMNRRR [ERBB3_Y1199] | inactive: 0.318
DEEFEYMNRRR [ERBB3_Y1199_YF] | inactive: 0.478
SPGGDYAAMGA [ERBB3_Y1276_G1271S] | inactive: 0.451
SPPPAFTPMSG [ERBB4_Y1056_Y1056F] | inactive: 0.666
GDYLSYREFHS [ERBIN_Y1107] | inactive: 1.19
GDYLSYREFHL [ERBIN_Y1107_S1112L] | inactive: 1.33
EVEPRYVVLYD [ERCC4_Y577] | inactive: 0.742
RYVVLYDAELT [ERCC4_Y581] | inactive: 1.74
FFCRWYRNQKS [EREG_Y144_R147Q_YF] | inactive: 0.218
NKKFHYRELPV [ERN2_Y860_H858Y_YF] | inactive: 1.17
RLQEDYDHSYY [ESD_Y258_G257D] | inactive: 0.758
RLQEDYDHSFF [ESD_Y258_G257D_YF] | inactive: 0.72
GYDHSYYFIAT [ESD_Y262] | inactive: 0.949
DFDHSYFFIAT [ESD_Y262_G257D_YF] | inactive: 0.703

Molecular target: SHP2 C-SH2 domain wild-type
Experiment: as above
Details: peptide library: pTyr-Var

Binder | enrichment score
YGPPQYNMQYS [ERBB2IP_Y977_I979M] | inactive: 0.703
FGPPQYNMQFS [ERBB2IP_Y977_I979M_YF] | inactive: 1.05
RGDSAYHSQRH [ERBB3_Y1132] | inactive: 0.522
DEDEEYEYMNR [ERBB3_Y1197] | inactive: 0.453
DEEYEYMNRRR [ERBB3_Y1199] | inactive: 0.515
DEEFEYMNRRR [ERBB3_Y1199_YF] | inactive: 0.413
SPGGDYAAMGA [ERBB3_Y1276_G1271S] | inactive: 0.437
SPPPAFTPMSG [ERBB4_Y1056_Y1056F] | inactive: 0.483
GDYLSYREFHS [ERBIN_Y1107] | inactive: 1.14
GDYLSYREFHL [ERBIN_Y1107_S1112L] | inactive: 1.14
EVEPRYVVLYD [ERCC4_Y577] | inactive: 1.33
RYVVLYDAELT [ERCC4_Y581] | active: 3.4
FFCRWYRNQKS [EREG_Y144_R147Q_YF] | inactive: 0.293
NKKFHYRELPV [ERN2_Y860_H858Y_YF] | inactive: 1.11
RLQEDYDHSYY [ESD_Y258_G257D] | inactive: 0.65
RLQEDYDHSFF [ESD_Y258_G257D_YF] | inactive: 0.708
GYDHSYYFIAT [ESD_Y262] | inactive: 0.645
DFDHSYFFIAT [ESD_Y262_G257D_YF] | inactive: 0.653

Molecular target: SHP2 N-SH2 domain L43F
Experiment: as above
Details: peptide library: pTyr-Var

Binder | enrichment score
YGPPQYNMQYS [ERBB2IP_Y977_I979M] | inactive: 0.734
FGPPQYNMQFS [ERBB2IP_Y977_I979M_YF] | inactive: 1.26
RGDSAYHSQRH [ERBB3_Y1132] | inactive: 0.646
DEDEEYEYMNR [ERBB3_Y1197] | inactive: 0.364
DEEYEYMNRRR [ERBB3_Y1199] | inactive: 0.459
DEEFEYMNRRR [ERBB3_Y1199_YF] | inactive: 0.331
SPGGDYAAMGA [ERBB3_Y1276_G1271S] | inactive: 0.47
SPPPAFTPMSG [ERBB4_Y1056_Y1056F] | inactive: 0.587
GDYLSYREFHS [ERBIN_Y1107] | inactive: 0.95
GDYLSYREFHL [ERBIN_Y1107_S1112L] | inactive: 1.54
EVEPRYVVLYD [ERCC4_Y577] | inactive: 2.08
RYVVLYDAELT [ERCC4_Y581] | active: 5.51
FFCRWYRNQKS [EREG_Y144_R147Q_YF] | inactive: 0.296
NKKFHYRELPV [ERN2_Y860_H858Y_YF] | inactive: 1.01
RLQEDYDHSYY [ESD_Y258_G257D] | inactive: 0.692
RLQEDYDHSFF [ESD_Y258_G257D_YF] | inactive: 0.689
GYDHSYYFIAT [ESD_Y262] | inactive: 0.853
DFDHSYFFIAT [ESD_Y262_G257D_YF] | inactive: 0.691

Molecular target: SHP2 N-SH2 domain T42A
Experiment: as above
Details: peptide library: pTyr-Var

Binder | enrichment score
YGPPQYNMQYS [ERBB2IP_Y977_I979M] | inactive: 0.573
FGPPQYNMQFS [ERBB2IP_Y977_I979M_YF] | inactive: 1.12
RGDSAYHSQRH [ERBB3_Y1132] | inactive: 0.462
DEDEEYEYMNR [ERBB3_Y1197] | inactive: 0.475
DEEYEYMNRRR [ERBB3_Y1199] | inactive: 0.592
DEEFEYMNRRR [ERBB3_Y1199_YF] | inactive: 0.383
SPGGDYAAMGA [ERBB3_Y1276_G1271S] | inactive: 0.453
SPPPAFTPMSG [ERBB4_Y1056_Y1056F] | inactive: 0.558
GDYLSYREFHS [ERBIN_Y1107] | inactive: 0.834
GDYLSYREFHL [ERBIN_Y1107_S1112L] | inactive: 0.955
EVEPRYVVLYD [ERCC4_Y577] | active: 3.84
RYVVLYDAELT [ERCC4_Y581] | active: 8.9
FFCRWYRNQKS [EREG_Y144_R147Q_YF] | inactive: 0.301
NKKFHYRELPV [ERN2_Y860_H858Y_YF] | inactive: 1.22
RLQEDYDHSYY [ESD_Y258_G257D] | inactive: 0.836
RLQEDYDHSFF [ESD_Y258_G257D_YF] | inactive: 0.62
GYDHSYYFIAT [ESD_Y262] | inactive: 0.964
DFDHSYFFIAT [ESD_Y262_G257D_YF] | inactive: 0.609

Molecular target: SHP2 N-SH2 domain T52S
Experiment: as above
Details: peptide library: pTyr-Var

Binder | enrichment score
YGPPQYNMQYS [ERBB2IP_Y977_I979M] | inactive: 0.539
FGPPQYNMQFS [ERBB2IP_Y977_I979M_YF] | inactive: 1.07
RGDSAYHSQRH [ERBB3_Y1132] | inactive: 0.483
DEDEEYEYMNR [ERBB3_Y1197] | inactive: 0.378
DEEYEYMNRRR [ERBB3_Y1199] | inactive: 0.355
DEEFEYMNRRR [ERBB3_Y1199_YF] | inactive: 0.403
SPGGDYAAMGA [ERBB3_Y1276_G1271S] | inactive: 0.512
SPPPAFTPMSG [ERBB4_Y1056_Y1056F] | inactive: 0.654
GDYLSYREFHS [ERBIN_Y1107] | inactive: 0.947
GDYLSYREFHL [ERBIN_Y1107_S1112L] | inactive: 1.34
EVEPRYVVLYD [ERCC4_Y577] | inactive: 2.18
RYVVLYDAELT [ERCC4_Y581] | active: 7.21
FFCRWYRNQKS [EREG_Y144_R147Q_YF] | inactive: 0.23
NKKFHYRELPV [ERN2_Y860_H858Y_YF] | inactive: 1.29
RLQEDYDHSYY [ESD_Y258_G257D] | inactive: 0.649
RLQEDYDHSFF [ESD_Y258_G257D_YF] | inactive: 0.379
GYDHSYYFIAT [ESD_Y262] | inactive: 0.642
DFDHSYFFIAT [ESD_Y262_G257D_YF] | inactive: 0.639

Molecular target: SHP2 N-SH2 domain wild-type
Experiment: as above
Details: peptide library: pTyr-Var

Binder | enrichment score
YGPPQYNMQYS [ERBB2IP_Y977_I979M] | inactive: 0.615
FGPPQYNMQFS [ERBB2IP_Y977_I979M_YF] | inactive: 0.916
RGDSAYHSQRH [ERBB3_Y1132] | inactive: 0.668
DEDEEYEYMNR [ERBB3_Y1197] | inactive: 0.657
DEEYEYMNRRR [ERBB3_Y1199] | inactive: 0.403
DEEFEYMNRRR [ERBB3_Y1199_YF] | inactive: 0.409
SPGGDYAAMGA [ERBB3_Y1276_G1271S] | inactive: 0.624
SPPPAFTPMSG [ERBB4_Y1056_Y1056F] | inactive: 0.594
GDYLSYREFHS [ERBIN_Y1107] | inactive: 0.711
GDYLSYREFHL [ERBIN_Y1107_S1112L] | inactive: 0.998
EVEPRYVVLYD [ERCC4_Y577] | inactive: 1.16
RYVVLYDAELT [ERCC4_Y581] | inactive: 2.59
FFCRWYRNQKS [EREG_Y144_R147Q_YF] | inactive: 0.325
NKKFHYRELPV [ERN2_Y860_H858Y_YF] | inactive: 1.34
RLQEDYDHSYY [ESD_Y258_G257D] | inactive: 1.01
RLQEDYDHSFF [ESD_Y258_G257D_YF] | inactive: 0.714
GYDHSYYFIAT [ESD_Y262] | inactive: 0.92
DFDHSYFFIAT [ESD_Y262_G257D_YF] | inactive: 0.76
